{"source": "the CheMixHub viscosity set", "note": "± gives the uncertainty stated by the source. A number of entries come with more than one value. They are shown here; other results are not. The source may hold further records. Values that stand side by side are repeats across runs, samples, wells, individuals or studies. What stands in brackets tells the records apart. Letters count within one entry.", "data": [{"smiles": "CCCCO", "values": [{"measurement": "viscosity", "setting": "298.15 K, 101.33 kPa", "result": "2.484 mPa·s [study A] and 2.525 ± 0.017 mPa·s [study B] and 2.484 ± 0.059 mPa·s [study C] and 2.509 ± 0.015 mPa·s [study D]"}, {"measurement": "viscosity", "setting": "303.15 K, 101.33 kPa", "result": "2.174 ± 0.052 mPa·s [study A] and 2.324 ± 0.12 mPa·s [study B] and 2.324 ± 0.11 mPa·s [study C] and 2.209 ± 0.027 mPa·s [study D]"}, {"measurement": "viscosity", "setting": "308.15 K, 101 kPa", "result": "2.254 ± 0.017 mPa·s [study A] and 1.574 ± 0.022 mPa·s [study B] and 2.047 ± 0.018 mPa·s [study C] and 1.834 ± 0.068 mPa·s [study D] and 1.927 ± 0.024 mPa·s [study E]"}, {"measurement": "viscosity", "setting": "313.15 K, 101.33 kPa", "result": "1.705 ± 0.011 mPa·s [study A] and 1.817 ± 0.012 mPa·s [study B] and 1.817 ± 0.014 mPa·s [study C] and 1.817 ± 0.022 mPa·s [study D]"}]}]}
